Among all 310,000 compounds or so, about 18,000 (5.8%) were called active. The inconclusive results got no clear call from the source; some entries with a clear call stand among them for comparison. Calls come from the whole dose curve; as a rule, active = well fitted inhibition curve with a large enough effect; inconclusive = small, poorly fitted or top-dose-only effect, or another doubt; inactive = no such curve, though single readings can be large or run the other way. No potency is given beside an inconclusive call; the fits are too rough.
Experiment: Primary qHTS for delayed death inhibitors of the malarial parasite plastid, 48 hour incubation
Settings: P. falciparum luciferase growth in erythrocytes; series mostly up to 28.7 µM
Method in brief: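 Cell-based growth assay: transgenic P. falciparum expressing firefly luciferase, cultured in red cells within RPMI 1640 containing 0.5% w/v Albumax, 24 mM bicarbonate and gentamycin. A drop in luciferase activity indicates inhibition.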
Potency is the fitted concentration of half-maximal effect; tags give direction and shape of the fitted curve.

**Q.** For COc1ccc(C(CC(=O)N2CCCCC2)c2c(OC)cc(OC)c3ccc(=O)oc23)cc1 (centres undefined), which Potency is on record?
**A.** inconclusive [inhibitor, single point]

**Q.** Which Potency does the source give for Cc1ccc(S(=O)(=O)CC(C)(O)C(=O)Nc2cccc(C(F)(F)F)c2)cc1 (centres undefined) here?
**A.** inactive

**Q.** For COc1ccccc1CNc1ncnc2cc(OC)c(OC)cc12, which Potency is on record?
**A.** inconclusive [inhibitor, single point]

**Q.** Which Potency does the source give for CCC(C)Sc1nc2c([nH]c3ccccc32)c(=O)n1C (centres undefined) here?
**A.** inconclusive [inhibitor, single point]

**Q.** With CCOC(=O)c1cc2c(=O)n3ccccc3nc2n(C(C)C)c1=NC(=O)c1ccncc1 as the compound, how does the Potency read?
**A.** inconclusive [inhibitor, partial curve, poor fit]

**Q.** With COc1ccc(N=c2ssnc2Cl)cc1 as the compound, how does the Potency read?
**A.** inactive

**Q.** With O=C(CN1CCN(S(=O)(=O)c2ccc(Br)cc2)CC1)N/N=C/c1cccnc1 as the compound, how does the Potency read?
**A.** inactive

**Q.** With COc1ccc(C2CC(=O)c3cnn(-c4nc(C)cc(C)n4)c3C2)cc1 (centres undefined) as the compound, how does the Potency read?
**A.** inconclusive [inhibitor, partial curve, poor fit]

**Q.** With N#Cc1ccc(S(=O)(=O)Nc2ccc3ccccc3n2)cc1 as the compound, how does the Potency read?
**A.** inactive

**Q.** With O=C(CNC(=O)c1ccc(Br)o1)NNC(=O)c1n[nH]c(=O)c2ccccc12 as the compound, how does the Potency read?
**A.** inconclusive [inhibitor, partial curve, poor fit]

**Q.** With COCCN(CC(=O)Nc1cccc(S(=O)(=O)N2CCCC2)c1)Cc1nc2ccccc2c(=O)[nH]1 as the compound, how does the Potency read?
**A.** active: 10.4 µM

**Q.** Which Potency does the source give for COc1cc(S(=O)(=O)N2CCN=C2c2ccccc2)ccc1Cl here?
**A.** inactive

**Q.** Which Potency does the source give for C#C[C@]1(O)CC[C@H]2[C@@H]3CCC4=Cc5oncc5C[C@]4(C)[C@H]3CC[C@@]21C here?
**A.** inactive

**Q.** For Oc1cc2c(cc1CN1CCN(c3ccc(F)cc3)CC1)OCO2, which Potency is on record?
**A.** inconclusive [inhibitor, single point]

**Q.** For COc1cc(CNCCNC(=O)c2nonc2N)ccc1OCc1ccc(Cl)cc1, which Potency is on record?
**A.** inconclusive [inhibitor, single point]

**Q.** Which Potency does the source give for CCN(C(=O)COC(=O)C1CC1)c1c(N)n(Cc2ccccc2)c(=O)[nH]c1=O here?
**A.** inconclusive [inhibitor, single point]

**Q.** Which Potency does the source give for O=C(NCc1ccc(Cl)cc1)C1CCN(c2nnc(N3CCCC3=O)s2)CC1 here?
**A.** inactive

**Q.** Which Potency does the source give for CCOC(=O)C1CCCN(C2=NC(=O)/C(=C/c3ccc(O)c(OCC)c3)S2)C1 (centres undefined) here?
**A.** inconclusive [inhibitor, partial curve]

**Q.** With Cc1cc2oc(=O)c(CC(=O)NCCCN(C)C)c(C)c2c2occ(C(C)(C)C)c12 as the compound, how does the Potency read?
**A.** active: 2.62 µM

**Q.** Which Potency does the source give for CCOc1ccc2nc(CN3CCN(Cc4ccccc4OCC)C(CCO)C3)ccc2c1 (centres undefined) here?
**A.** inconclusive [inhibitor, single point]

**Q.** With COc1ccc(N(CC(=O)NC2CC3CCC2C3)S(=O)(=O)c2ccc(C)cc2)cc1OC (centres undefined) as the compound, how does the Potency read?
**A.** inconclusive [inhibitor, partial curve]

**Q.** Which Potency does the source give for Cc1nnc(C)c2c(C)n(Cc3ccc4c(c3)OCO4)c(C)c12 here?
**A.** inconclusive [inhibitor, single point]

**Q.** With CCOC(=O)C1(CCOC)CCN(C(=O)c2ccccc2-c2cccc(C)c2)CC1 as the compound, how does the Potency read?
**A.** inconclusive [inhibitor, single point]

**Q.** For O=C(CCC(=O)OCc1ccc(Br)cc1)Nc1ccccc1, which Potency is on record?
**A.** inactive

**Q.** With COc1ccc(NP(=O)(Oc2ccc(Cl)cc2)Oc2ccc(Cl)cc2)cc1OC as the compound, how does the Potency read?
**A.** inconclusive [inhibitor, single point]

**Q.** Which Potency does the source give for CCOC(=O)NC(O)C(=O)c1ccc(F)cc1 (centres undefined) here?
**A.** inactive

**Q.** For Cc1ccc(S(=O)(=O)N(CC(=O)NCCSc2ccccn2)c2ccccc2F)cc1, which Potency is on record?
**A.** inconclusive [inhibitor, full curve, poor fit]

**Q.** For C/C(=N\Nc1ccc(F)cc1F)c1cccs1, which Potency is on record?
**A.** inactive

**Q.** Which Potency does the source give for CC(CCc1ccco1)NC(=O)CCc1nnc2ccc(NCc3ccccc3Cl)nn12 (centres undefined) here?
**A.** inconclusive [inhibitor, partial curve, poor fit]

**Q.** With Cc1ccc(-n2ncc(C(=O)NC3CC3)c2C2CCN(C(=O)OC(C)(C)C)CC2)cc1 as the compound, how does the Potency read?
**A.** inconclusive [inhibitor, partial curve]

**Q.** With COc1cccc(C(NC(=O)c2ccccc2F)NC(=O)c2ccccc2F)c1 as the compound, how does the Potency read?
**A.** active: 13.1 µM

**Q.** With Cc1cc(Nc2ccc(N3CCC(C)CC3)cc2)n2ncnc2n1 as the compound, how does the Potency read?
**A.** inconclusive [inhibitor, partial curve]

**Q.** Which Potency does the source give for COc1cc2[nH]c(=S)nc(NCCc3ccc(S(N)(=O)=O)cc3)c2cc1OC here?
**A.** inactive

**Q.** Which Potency does the source give for COc1ccc(/C=C/C(=O)Nc2ccccc2C(=O)NCC(c2ccc(OC)cc2)N(C)C)cc1 (centres undefined) here?
**A.** inconclusive [inhibitor, single point]

**Q.** Which Potency does the source give for CC(=O)c1c(C)nc(Nc2nc(C)c3cc(C)ccc3n2)nc1C here?
**A.** inactive

**Q.** Which Potency does the source give for O=C(/C=C/c1ccc([N+](=O)[O-])cc1)OCC(=O)N1c2ccccc2Sc2ccccc21 here?
**A.** inactive

**Q.** Which Potency does the source give for CS(=O)(=O)N1CCN(c2ccc(NC(=O)c3ccc(Br)o3)cc2)CC1 here?
**A.** inactive

**Q.** For COc1ccc(CCNCc2c(-c3ccccc3)n(C)c3ccccc23)cc1, which Potency is on record?
**A.** active: 11.7 µM

**Q.** Which Potency does the source give for Fc1cccc(/C=N/Nc2ncnc3nc[nH]c23)c1 here?
**A.** inconclusive [inhibitor, single point]

**Q.** Which Potency does the source give for CNc1snc(C)c1C(=O)OC(C)C(=O)Nc1ccccc1 (centres undefined) here?
**A.** inconclusive [inhibitor, partial curve]

**Q.** Which Potency does the source give for COc1ccc(Cl)cc1NC(=O)CN1c2ccccc2CC1C (centres undefined) here?
**A.** inconclusive [inhibitor, single point]

**Q.** For O=C(NC1CC1)C1=C[C@H](c2c[nH]c3ccccc23)C[C@H](OCc2ccc(CO)cc2)O1, which Potency is on record?
**A.** inconclusive [inhibitor, single point]

**Q.** For COc1cc(/C=C/C(=O)OCN2C(=O)c3ccccc3C2=O)ccc1OC(F)F, which Potency is on record?
**A.** inactive

**Q.** Which Potency does the source give for CCOC(=O)CCCCC(=O)c1[nH]c(=O)[nH]c1CSCCO here?
**A.** inconclusive [inhibitor, single point]

**Q.** With CCCCC(CC)C(=O)NCc1ccc(F)cc1 (centres undefined) as the compound, how does the Potency read?
**A.** inactive

**Q.** Which Potency does the source give for COc1cccc(-c2nc(CS(=O)(=O)CC(=O)N3CCN(C4CCCCC4)CC3)c(C)o2)c1 here?
**A.** inconclusive [inhibitor, single point]

**Q.** For CCN1CCN(Cc2ccc(NC(=O)c3cc(NC(=O)c4cc(C)on4)cc(OC)c3)cc2C(F)(F)F)CC1, which Potency is on record?
**A.** inconclusive [inhibitor, full curve, poor fit]

**Q.** For COc1ccc(N(CC(=O)Nc2ccc(F)c(Cl)c2)S(=O)(=O)c2c(C)noc2C)cc1, which Potency is on record?
**A.** inconclusive [inhibitor, single point]

**Q.** For C=CCOc1ccccc1CN(C(=O)CCl)c1ccc2c(c1)OCO2, which Potency is on record?
**A.** inconclusive [inhibitor, full curve]

**Q.** With O=[N+]([O-])c1ccc(O)c(/C=N/Nc2ccccn2)c1 as the compound, how does the Potency read?
**A.** active: 2.94 µM

**Q.** Which Potency does the source give for CN1CCN(NC(=S)NC(C)(C)CC(C)(C)C)CC1 here?
**A.** inactive

**Q.** Which Potency does the source give for O=C(CSc1nc(=O)n2cc(Cl)ccc2n1)Nc1cccc2ccccc12 here?
**A.** inconclusive [inhibitor, single point]

**Q.** Which Potency does the source give for O=C(O)c1cc(S(=O)(=O)NC23CC4CC(CC(C4)C2)C3)ccc1Cl here?
**A.** inactive

**Q.** With COc1ccccc1C(CNC(=O)c1ccc(C)c(S(=O)(=O)N2CCCCC2)c1)N(C)C (centres undefined) as the compound, how does the Potency read?
**A.** inconclusive [inhibitor, single point]

**Q.** Which Potency does the source give for Cc1ccccc1-n1cnc2cc(NCc3cccs3)ccc21 here?
**A.** inconclusive [inhibitor, single point]

**Q.** For CC(C)(C)OC(=O)COc1cc(OCC(=O)OC(C)(C)C)c2c(=O)cc(-c3ccccc3)oc2c1, which Potency is on record?
**A.** inconclusive [inhibitor, partial curve, poor fit]

**Q.** For Cc1[nH]c2ccc(F)cc2c1CCN(Cc1ccncc1)C(=S)Nc1ccccc1, which Potency is on record?
**A.** inconclusive [inhibitor, single point]

**Q.** With CCc1ccc(NC(=O)CNC(=O)[C@@H]2Cc3ccccc3CN2C(=O)OC(C)(C)C)cc1 as the compound, how does the Potency read?
**A.** inconclusive [inhibitor, single point]

**Q.** With CC(=O)N(C[C@@H](C)C(=O)O)c1c(I)cc(I)c(N)c1I as the compound, how does the Potency read?
**A.** inactive

**Q.** Which Potency does the source give for O=C(NCc1ccc(Cl)cc1)C(=O)NCC(c1cccnc1)N1CCN(c2ccc(F)cc2)CC1 (centres undefined) here?
**A.** inconclusive [inhibitor, partial curve]

**Q.** For Cc1ccccc1-n1c(SCC(=O)c2cc(C)n(C)c2C)nnc1-c1ccncc1, which Potency is on record?
**A.** inconclusive [inhibitor, single point]

**Q.** With CCCNC(=O)N1CCC(Cc2ccccc2)CC1 as the compound, how does the Potency read?
**A.** inconclusive [inhibitor, single point]

**Q.** For COc1cccc(C(=O)Cn2c(=N)n(C)c3ccccc32)c1, which Potency is on record?
**A.** inactive

**Q.** For CCOC(=O)C1=C(C)NC(C)=C(C(=O)OCC)C1c1ccco1, which Potency is on record?
**A.** inconclusive [inhibitor, single point]

**Q.** For COc1ccc(C(c2c(NC(=O)c3ccco3)sc(C)c2C)N2CCOCC2)cc1 (centres undefined), which Potency is on record?
**A.** inconclusive [inhibitor, full curve, poor fit]

**Q.** With Cc1cc(C)c(S(=O)(=O)N2CCN(S(=O)(=O)N3CCCCCC3)CC2)c(C)c1 as the compound, how does the Potency read?
**A.** inconclusive [inhibitor, partial curve, poor fit]

**Q.** For CC1CCN(C(C)C(=O)Nc2cc(S(=O)(=O)N3CCCCC3)ccc2Cl)CC1 (centres undefined), which Potency is on record?
**A.** active: 11.7 µM

**Q.** With CC(=O)Nc1nc2ccccc2n1Cc1ccc(C)cc1 as the compound, how does the Potency read?
**A.** inconclusive [inhibitor, single point]

**Q.** Which Potency does the source give for Cc1ccc(S(=O)(=O)c2nc(-c3ccco3)oc2NCC2CCCO2)cc1 (centres undefined) here?
**A.** inactive

Reference: PubChem BioAssay AID504832 (National Center for Advancing Translational Sciences (NCATS), 2011)
